From PubChem BioAssay AID1030 (National Center for Advancing Translational Sciences (NCATS), 2008)
Screen size: about 220,000 compounds; about 16,000 (7.3%) were called active. Inconclusive means that the source gave no clear call. Such entries were picked first, then a sample of the others. The call rests on the fitted dose curve; in most records, active means well fitted inhibition curve with a large enough effect (not every such curve was filed as active); inconclusive means small, poorly fitted or top-dose-only effect, or another doubt; inactive means no such curve, though single readings can be large or run the other way. Potencies of inconclusive entries are doubtful fits and often do not repeat.

What follows are compounds tested against Aldehyde dehydrogenase 1A1 (Homo sapiens) (UniProt P00352) (assay: qHTS Assay for Inhibitors of Aldehyde Dehydrogenase 1 (ALDH1A1)). Details: Purified ALDH1A1, NADH fluorescence, propionaldehyde substrate; series mostly up to 75.3 µM.
Chain of UniProt P00352 (P00352 whole entry, looked up): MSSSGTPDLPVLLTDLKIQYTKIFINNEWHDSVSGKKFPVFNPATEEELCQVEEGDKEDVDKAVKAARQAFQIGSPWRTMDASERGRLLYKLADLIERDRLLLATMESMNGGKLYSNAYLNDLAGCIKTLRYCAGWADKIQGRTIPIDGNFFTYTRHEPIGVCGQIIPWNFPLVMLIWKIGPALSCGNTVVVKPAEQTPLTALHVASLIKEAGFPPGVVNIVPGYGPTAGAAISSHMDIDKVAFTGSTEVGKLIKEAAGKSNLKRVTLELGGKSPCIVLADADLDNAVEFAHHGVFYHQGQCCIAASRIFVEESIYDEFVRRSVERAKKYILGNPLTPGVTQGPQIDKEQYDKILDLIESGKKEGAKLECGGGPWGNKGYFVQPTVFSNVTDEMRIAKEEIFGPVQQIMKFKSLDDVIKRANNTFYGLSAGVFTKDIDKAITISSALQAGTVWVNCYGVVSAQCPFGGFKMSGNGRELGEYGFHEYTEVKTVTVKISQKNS
Potency means the concentration at half of the fitted maximal effect; tags describe the fitted curve by direction and shape.

Potency, inactive:
COc1ccc(NC(=O)c2ccco2)cc1NC(=O)c1cccs1, COc1cccc(CN2CCCC(C(=O)c3ccc4c(c3)OCO4)C2)c1O (centres undefined), CNC(=O)N(C1=NCC(C)S1)c1ccc(F)cc1F (centres undefined), O=C(CSc1ncccn1)NN=C1CCCCCCC1, CN1CCc2cc(NC(=O)Nc3cccnc3)ccc21, O=C(Nc1ccc(Cl)cc1)c1ccc(Br)cc1F, Cc1ccc(S(=O)(=O)C(C#N)c2nc3ccccc3nc2N2CC(C)OC(C)C2)cc1C (centres undefined), COc1cc(C)nc(OCCNS(=O)(=O)c2cc(C)ccc2C)n1, COc1ccc(/C=N/Nc2nnc(C)n2N)cc1OC, COc1ccc(CCN2C(=O)CS/C2=N\NC(=O)c2cccs2)cc1OC, O=C1CCN(S(=O)(=O)c2ccc(Cl)cc2)N1, Cc1cc(Br)ccc1OCCNCc1ccccc1

Potency, active:
COc1cc(OC)cc(C(=O)NNC(=S)Nc2ccccc2OC)c1 22.4 µM, O=C(c1cnc2nc3ccccc3n2c1)c1cc(F)ccc1O 4.47 µM, CCOc1ccc(OCC)c(NC(=O)CSc2nc3c(c(=O)n(C)c(=O)n3C)n2C(C)C)c1 8.91 µM, Nc1cc(OC(=O)c2ccco2)nn1S(=O)(=O)c1ccc(F)cc1 14.1 µM, Cc1cc(NC(=O)c2cccc(S(=O)(=O)N3CCCC3)c2)no1 35.5 µM, CC(C)c1ccccc1-n1cc[nH]c1=S 10 µM, O=C(CSc1nnc(C2CC2)n1Cc1ccco1)NCC(F)(F)F 23.8 µM

Potency, inconclusive:
O=C(CN1CCCC1)Nc1c2c(nc3ccccc13)N(Cc1ccccc1)CC2 22.4 µM [inhibitor, partial curve], O=C(CCc1nnc(C2CCCCC2)o1)NCc1ccc(F)c(F)c1 31.6 µM [inhibitor, single point], CC(C)N=C1SCC(C)(/C=N/O)S1 (centres undefined) 25.1 µM [inhibitor, single point], CCCn1c2c(c(O)c(C(=O)NCc3ccccc3)c1=O)CCCC2 39.8 µM [inhibitor, single point], CN(C)c1nnc(-c2ccc(Cl)cc2)o1 25.1 µM [inhibitor, partial curve], Cc1ccc(C)c(/C(O)=C2/C(=O)C(=O)N(CCN3CCOCC3)C2c2ccc(C)o2)c1 (centres undefined) 39.8 µM [inhibitor, single point], COc1ccc(NC(=S)N2CCc3ccccc3C2)cc1OC 22.4 µM [inhibitor, single point], CC(C)CCn1c(N2CCN(Cc3ccccc3)CC2)nc2c1c(=O)[nH]c(=O)n2C 28.2 µM [inhibitor, single point], N#CNC(N)=Nc1cccc(Cl)c1 39.8 µM [inhibitor, single point], CC(/C=N\NC(=O)CN1CCN(Cc2ccccc2)CC1)=C\c1ccco1 39.8 µM [inhibitor, single point], O=C(NCC(c1cccs1)N1CCOCC1)c1cc(-c2ccc(F)cc2)nc2ccccc12 (centres undefined) 39.8 µM [inhibitor, single point], CC(C)N(C(=O)COC(=O)c1cc(Cl)cc(Cl)c1N)C(C)C 25.1 µM [inhibitor, partial curve], CCCCCCCC[n+]1cccc2c3ccccc3ccc21 39.8 µM [inhibitor, single point], O=[N+]([O-])c1cccc(C2NCC(c3ccccc3Cl)c3c2[nH]c2ccccc32)c1 (centres undefined) 31.6 µM [inhibitor, single point], COc1cc(/C=C(\C#N)C(=O)c2ccc(O)c(O)c2)cc(I)c1O 39.8 µM [inhibitor, partial curve, poor fit], COc1ccc(OCc2nnc3n2N=C(c2ccc(OC)cc2)CS3)cc1 35.5 µM [inhibitor, single point], CNC(=O)c1ccc(-c2ccc(F)cc2)s1 28.2 µM [inhibitor, single point], Nc1nc(CN2CCN(c3ccccc3F)CC2)nc(N2CCCc3ccccc32)n1 22.4 µM [inhibitor, partial curve], CCc1ccc(C2=NN(CCC(=O)NCc3cccs3)C(=O)CC2)cc1 25.1 µM [inhibitor, partial curve], O=S(NCc1ccccc1)C12CC3CC(CC(C3)C1)C2 (centres undefined) 14.1 µM [inhibitor, partial curve], Cc1cccc(Cn2c(N(C)CCO)nc3c2c(=O)[nH]c(=O)n3C)c1 44.7 µM [inhibitor, single point], CCOC(=O)C1CCN(CC(=O)Nc2cc(S(=O)(=O)N3CCOCC3)ccc2C)CC1 44.7 µM [inhibitor, single point], O=C(c1ccccc1F)N(Cc1cccnc1)Cc1cc2cc3c(cc2[nH]c1=O)OCCO3 31.6 µM [inhibitor, partial curve], CSC1=NSC2=NC(=O)/C(=C/c3coc4ccccc4c3=O)C(=N)N12 35.5 µM [inhibitor, single point], O=C1CC(O)(C(F)F)Oc2ccc3ccccc3c21 (centres undefined) 35.5 µM [inhibitor, single point], O=C(c1cccc(N2C(=O)c3ccccc3C2=O)c1)N1CCCCCC1 28.2 µM [inhibitor, single point], Cc1ccsc1-c1nc(CN2CCN(C)C(=O)[C@@H]2C)c(C)o1 39.8 µM [inhibitor, single point], CC(C)NC(=O)c1onc(CSc2cccc(F)c2)c1C(=O)O 39.8 µM [inhibitor, single point], COc1ccc(-n2c3c(cc(C(=O)Nc4cccc(C)n4)c2=O)C(=O)CC(C)(C)C3)cc1 8.91 µM [inhibitor, single point], CCOc1cc(/C=C2\SC(=O)N=C2N)ccc1O 39.8 µM [inhibitor, single point], O=C(N/N=C/c1cn(-c2cccs2)nc1-c1ccccc1)c1ccccc1Cl 35.5 µM [inhibitor, single point], Cn1c(=O)oc2cc(S(=O)(=O)NC(Cc3ccccc3)C(=O)N3CCCCC3)ccc21 (centres undefined) 15.8 µM [inhibitor, partial curve], O=C(NCCCNC(=O)c1ccco1)c1ccco1 28.2 µM [inhibitor, single point], Cn1cccc1CC(=O)N/N=C/c1ccc([N+](=O)[O-])cc1 39.8 µM [inhibitor, single point], O=C(NNS(=O)(=O)c1ccc([N+](=O)[O-])cc1)c1cnn(-c2ccccc2)c1-n1cccc1 31.6 µM [inhibitor, single point], O=C(c1ccco1)N1CCN(c2ncnc3c(-c4ccccc4)nsc23)CC1 28.2 µM [inhibitor, single point], O=C(NNc1nc(-c2ccccc2)cs1)c1ccccc1 39.8 µM [inhibitor, single point], Cc1cc(NS(=O)(=O)c2ccc(NC(=S)NC(=O)c3ccc(F)cc3)cc2)no1 39.8 µM [inhibitor, single point], COC(=O)C(CC(C)C)NC(=O)c1cc(OC)c(OC)c(OC)c1 (centres undefined) 39.8 µM [inhibitor, single point], O=C(c1ccccc1)c1ccc(OCCCCN2CCCCC2)cc1 44.7 µM [inhibitor, single point], CC(=O)N1N=C(c2cccc(Cl)c2)OC1c1cccc([N+](=O)[O-])c1 (centres undefined) 39.8 µM [inhibitor, single point], Cc1cc(-n2c(SCc3ccccc3F)nc3n[nH]c(C)c3c2=N)ccc1Cl 31.6 µM [inhibitor, partial curve], O=[N+]([O-])c1ccc(NC(=S)NCCc2ccc(F)cc2)cc1 39.8 µM [inhibitor, single point], CS(=O)(=O)N1CCN(c2ccccc2NC(=O)CSc2ccc(Cl)cc2)CC1 39.8 µM [inhibitor, single point], CCOC(=O)C1NN=C(C(=O)c2ccccc2)C1c1ccc(Cl)cc1 (centres undefined) 22.4 µM [inhibitor, partial curve], Cc1ccc(-c2cc(C(=O)O)c3sc(N4CCCCC4)nc3n2)cc1 28.2 µM [inhibitor, partial curve], CC12CCC(=O)N1c1c(sc3nc(N4CCOCC4)c4c(c13)CCCC4)C(=O)N2 (centres undefined) 31.6 µM [inhibitor, partial curve], O=C(CCn1c(=S)oc2ccccc21)Nc1cccc(O)c1 39.8 µM [inhibitor, single point], COc1ccccc1C1(O)CC2CCC(C1)N2S(=O)(=O)c1ccc(C(C)=O)cc1 (centres undefined) 35.5 µM [inhibitor, single point], CCCNC(=O)Cc1c(O)c2ccccc2[nH]c1=O 39.8 µM [inhibitor, single point]
